In the supplement of paper PMC4604168 (melanoma cell lines):
The other results are listed elsewhere or left out. Single values are uncertain, as repeats are few or missing.

test system: LB2518-MEL; experiment: cell count relative to DMSO control; melanoma cells; higher = more viable cells; details: library dose: standard library concentration; 72 h
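Also: cells treated in 1,536-well plates, then fixed and DAPI-stained, with nuclei counted from automated high-throughput microscope images.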

SMILES	cell count [%]
NC(=O)c1ccc(N(C(N)=O)c2c(F)cccc2F)nc1-c1ccc(F)cc1F + O=C(O)c1ccc(-c2c[nH]c3ncc(-c4ccccc4)cc23)cc1C1CCCC1 [GSK650394] (first compound 2 µM, partner dose 0.8 µM)	87.7
CCCCCCCCc1ccc(CCC(N)(CO)CO)cc1 [fingolimod] + CS(=O)(=O)CCNCc1ccc(-c2ccc3ncnc(Nc4ccc(OCc5cccc(F)c5)c(Cl)c4)c3c2)o1 [lapatinib] (first compound 10 µM, partner dose 4 µM)	0.427
CC(C)(C)c1cnc(CSc2cnc(NC(=O)C3CCNCC3)s2)o1 + CN(NC(=O)CC(=O)NN(C)C(=S)c1ccccc1)C(=S)c1ccccc1 [STA4783] (first compound 0.05 µM, partner dose 0.03 µM)	11.8
CCCCCCCCc1ccc(CCC(N)(CO)CO)cc1 [fingolimod] + COc1ccc(Cl)c(Nc2nc3ccccc3nc2NS(=O)(=O)c2cccc(NC(=O)C(C)(C)N)c2)c1 [XL147] (first compound 10 µM, partner dose 4 µM)	4.09
CCCCCCCCc1ccc(CCC(N)(CO)CO)cc1 [fingolimod] + C[C@@H]1CCN(C(=O)CC#N)C[C@@H]1N(C)c1ncnc2[nH]ccc12 [CP690550] (first compound 10 µM, partner dose 5 µM)	0.351
COc1cc2c(Oc3ccc4[nH]c(C)cc4c3F)ncnc2cc1OCCCN1CCCC1 [cediranib] + CCN(CC)CCCCNc1ncc2cc(-c3cc(OC)cc(OC)c3)c(NC(=O)NC(C)(C)C)nc2n1 [PD173074] (first compound 2 µM, partner dose 0.5 µM)	97.3
NC(=O)c1ccc(N(C(N)=O)c2c(F)cccc2F)nc1-c1ccc(F)cc1F + CN(C)S(=O)(=O)c1ccc2c(c1)/C(=C/c1cc3c([nH]1)CCCC3)C(=O)N2 [SU6656] (first compound 2 µM, partner dose 2 µM)	71.1
CCCCCCCCc1ccc(CCC(N)(CO)CO)cc1 [fingolimod] + COCC[n+]1c2c(n(Cc3cnccn3)c1C)C(=O)c1ccccc1C2=O [YM155] (first compound 10 µM, partner dose 0.002 µM)	0.162
CC(C)(C)c1cnc(CSc2cnc(NC(=O)C3CCNCC3)s2)o1 + COc1ccc2c(c1)CCC1C2CCC2(C)C(NCCCCCCN3C(=O)C=CC3=O)CCC12 [U73122] (first compound 0.05 µM, partner dose 2 µM)	121
CC(C)(C)c1cnc(CSc2cnc(NC(=O)C3CCNCC3)s2)o1 + COc1ccc(COc2ccc(Cc3cnc(N)nc3N)cc2OC)cc1 [GW2580] (first compound 0.05 µM, partner dose 5 µM)	80.6
